At least one read-out could not be matched to a standard name with certainty.
Legend:
Echinochloa crug-galli [1] = assay: Biological Test 2 (soaking in water/treatment on the 10th day after transplantation): weed-killing effect on barnyard grass; assay type: in vivo, Echinochloa crus-galli; conditions: Treatment performed 10 days after transplantation
Echinochloa crug-galli [2] = assay: Biological Test 1 (soaking in water/treatment on the 3rd day after transplantation): weed-killing effect on barnyard grass; assay type: in vivo, Echinochloa crus-galli; conditions: Treatment performed 3 days after transplantation
Scirups juncoides [3] = assay: Biological Test 2 (soaking in water/treatment on the 10th day after transplantation): weed-killing effect on Scirups juncoides; assay type: in vivo, Scirpus juncoides; conditions: Treatment performed 10 days after transplantation
Scirups juncoides [4] = assay: Biological Test 1 (soaking in water/treatment on the 3rd day after transplantation): weed-killing effect on Scirups juncoides; assay type: in vivo, Scirpus juncoides; conditions: Treatment performed 3 days after transplantation

SMILES | Weed-killing effect, Echinochloa crug-galli (Echinochloa crug-galli [1]; dose 100 g/ha) | Weed-killing effect, Echinochloa crug-galli (Echinochloa crug-galli [1]; dose 200 g/ha) | Weed-killing effect, Echinochloa crug-galli (Echinochloa crug-galli [2]; dose 100 g/ha) | Weed-killing effect, Echinochloa crug-galli (Echinochloa crug-galli [2]; dose 200 g/ha) | Weed-killing effect, Scirups juncoides (Scirups juncoides [3]; dose 100 g/ha) | Weed-killing effect, Scirups juncoides (Scirups juncoides [3]; dose 200 g/ha) | Weed-killing effect, Scirups juncoides (Scirups juncoides [4]; dose 100 g/ha) | Weed-killing effect, Scirups juncoides (Scirups juncoides [4]; dose 200 g/ha)
CC(C)S(=O)(=O)C1=C(C(=O)c2ccc3c(c2Cl)CCS3(=O)=O)C(=O)CCC1 [B-29] | 4 (70% or more and less than 90%) | 4 (70% or more and less than 90%) | 4 (70% or more and less than 90%) | 5 (90% or more (almost completely withered)) | 4 (70% or more and less than 90%) | 5 (90% or more (almost completely withered)) | 4 (70% or more and less than 90%) | 5 (90% or more (almost completely withered))
CCCCS(=O)(=O)C1=C(C(=O)c2ccc3c(c2Cl)CCS3(=O)=O)C(=O)CCC1 [B-30] | 3 (40% or more and less than 70%) | 4 (70% or more and less than 90%) | 4 (70% or more and less than 90%) | 4 (70% or more and less than 90%) | 4 (70% or more and less than 90%) | 5 (90% or more (almost completely withered)) | 4 (70% or more and less than 90%) | 5 (90% or more (almost completely withered))
O=C1CCCC(S(=O)(=O)c2ccccc2)=C1C(=O)c1ccc2c(c1Cl)CCS2(=O)=O [B-31] | 3 (40% or more and less than 70%) | 4 (70% or more and less than 90%) | 4 (70% or more and less than 90%) | 4 (70% or more and less than 90%) | 4 (70% or more and less than 90%) | 5 (90% or more (almost completely withered)) | 4 (70% or more and less than 90%) | 5 (90% or more (almost completely withered))
Cc1ccccc1S(=O)(=O)C1=C(C(=O)c2ccc3c(c2Cl)CCS3(=O)=O)C(=O)CCC1 [B-32] | 3 (40% or more and less than 70%) | 4 (70% or more and less than 90%) | 3 (40% or more and less than 70%) | 4 (70% or more and less than 90%) | 4 (70% or more and less than 90%) | 5 (90% or more (almost completely withered)) | 4 (70% or more and less than 90%) | 5 (90% or more (almost completely withered))
Cc1cccc(S(=O)(=O)C2=C(C(=O)c3ccc4c(c3Cl)CCS4(=O)=O)C(=O)CCC2)c1 [B-33] | 3 (40% or more and less than 70%) | 4 (70% or more and less than 90%) | 4 (70% or more and less than 90%) | 4 (70% or more and less than 90%) | 4 (70% or more and less than 90%) | 5 (90% or more (almost completely withered)) | 4 (70% or more and less than 90%) | 5 (90% or more (almost completely withered))
Cc1ccc(S(=O)(=O)C2=C(C(=O)c3ccc4c(c3Cl)CCS4(=O)=O)C(=O)CCC2)cc1 [B-34] | 3 (40% or more and less than 70%) | 4 (70% or more and less than 90%) | 4 (70% or more and less than 90%) | 4 (70% or more and less than 90%) | 4 (70% or more and less than 90%) | 5 (90% or more (almost completely withered)) | 4 (70% or more and less than 90%) | 5 (90% or more (almost completely withered))
O=C1CCCC(S(=O)(=O)c2ccccc2Cl)=C1C(=O)c1ccc2c(c1Cl)CCS2(=O)=O [B-35] | 3 (40% or more and less than 70%) | 4 (70% or more and less than 90%) | 3 (40% or more and less than 70%) | 4 (70% or more and less than 90%) | 4 (70% or more and less than 90%) | 5 (90% or more (almost completely withered)) | 4 (70% or more and less than 90%) | 5 (90% or more (almost completely withered))
CC(C)c1ccccc1S(=O)(=O)C1=C(C(=O)c2ccc3c(c2Cl)CCS3(=O)=O)C(=O)CCC1 [B-36] | 3 (40% or more and less than 70%) | 4 (70% or more and less than 90%) | 3 (40% or more and less than 70%) | 4 (70% or more and less than 90%) | 4 (70% or more and less than 90%) | 4 (70% or more and less than 90%) | 4 (70% or more and less than 90%) | 5 (90% or more (almost completely withered))
COc1ccc(S(=O)(=O)C2=C(C(=O)c3ccc4c(c3Cl)CCS4(=O)=O)C(=O)CCC2)cc1 [B-37] | 3 (40% or more and less than 70%) | 4 (70% or more and less than 90%) | 4 (70% or more and less than 90%) | 4 (70% or more and less than 90%) | 4 (70% or more and less than 90%) | 5 (90% or more (almost completely withered)) | 4 (70% or more and less than 90%) | 5 (90% or more (almost completely withered))
C=CCS(=O)(=O)C1=C(C(=O)c2ccc3c(c2Cl)CCS3(=O)=O)C(=O)CCC1 [B-38, 4-chloro-5-[3-(3-propenyl)sulfonyl-1-oxocyclohexan-2-yl]carbonyl-2,3-dihydrobenzothiophene-1,1-dioxide] | 4 (70% or more and less than 90%) | 5 (90% or more (almost completely withered)) | 5 (90% or more (almost completely withered)) | 5 (90% or more (almost completely withered)) | 5 (90% or more (almost completely withered)) | 5 (90% or more (almost completely withered)) | 5 (90% or more (almost completely withered)) | 5 (90% or more (almost completely withered))

Source: patent US20040002425A1, “Triketone derivatives and herbicides” (Idemitsu Kosan Co., Ltd., priority 1998, published 2004)
